{"source": "paper PMC9428466", "about": "“Computational prediction and experimental validation of Salmonella Typhimurium SopE-mediated fine-tuning of autophagy in intestinal epithelial cells” (Frontiers in Cellular and Infection Microbiology, 2022)", "binders": {"B1": {"name": "BirA-Myc-SP1 (natural protein)", "chain": "not shown", "notes": "Transcription factor SP1, human; Construct is Addgene plasmid #167726; also called host SP1 transcription factor; source: HEK293, transfected, in lysate"}}, "target": "T1, GFP-SopE (Salmonella Typhimurium, UniProt O52623 1-240)", "T1 construct": "SopE, SPI-1 secreted effector (GEF mimic) of Salmonella enterica serovar Typhimurium; also called Salmonella effector SopE; source: HEK293, transfected, in lysate", "T1 sequence": "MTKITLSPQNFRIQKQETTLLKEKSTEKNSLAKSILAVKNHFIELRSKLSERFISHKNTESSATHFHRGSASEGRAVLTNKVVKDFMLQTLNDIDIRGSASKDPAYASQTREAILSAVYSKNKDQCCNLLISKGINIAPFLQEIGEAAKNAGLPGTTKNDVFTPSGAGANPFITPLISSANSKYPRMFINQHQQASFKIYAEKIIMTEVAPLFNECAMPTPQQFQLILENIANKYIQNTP", "experiment": "co-IP; GFP-Trap magnetic beads on cleared lysates of co-transfected HEK293 cells, overnight at 4°C; lysis buffer 20 mM Tris pH 7.5, 0.5% Triton X-100, 150 mM NaCl, 2 mM EDTA, with benzonase; four washes; anti-Myc and anti-GFP blots, densitometry", "conditions": "partners not purified"}
{"binder": "B1", "values": [{"measurement": "fold enrichment of SP1 in the co-IP against GFP alone", "result": "> 6", "unit": "fold"}]}
